# The whole screen tested about 310,000 compounds, of which about 2,200 (0.71%) showed an effect of 50% or more. Effects have a minus sign here. Some of the results follow.
# Target: human ether-à-go-go-related gene (hERG) potassium channel (human, UniProt Q12809)
# Assay: primary screen, population patch clamp on CHO cells stably expressing hERG
# Chain of human ether-à-go-go-related gene (hERG) potassium channel (Q12809 whole entry, looked up): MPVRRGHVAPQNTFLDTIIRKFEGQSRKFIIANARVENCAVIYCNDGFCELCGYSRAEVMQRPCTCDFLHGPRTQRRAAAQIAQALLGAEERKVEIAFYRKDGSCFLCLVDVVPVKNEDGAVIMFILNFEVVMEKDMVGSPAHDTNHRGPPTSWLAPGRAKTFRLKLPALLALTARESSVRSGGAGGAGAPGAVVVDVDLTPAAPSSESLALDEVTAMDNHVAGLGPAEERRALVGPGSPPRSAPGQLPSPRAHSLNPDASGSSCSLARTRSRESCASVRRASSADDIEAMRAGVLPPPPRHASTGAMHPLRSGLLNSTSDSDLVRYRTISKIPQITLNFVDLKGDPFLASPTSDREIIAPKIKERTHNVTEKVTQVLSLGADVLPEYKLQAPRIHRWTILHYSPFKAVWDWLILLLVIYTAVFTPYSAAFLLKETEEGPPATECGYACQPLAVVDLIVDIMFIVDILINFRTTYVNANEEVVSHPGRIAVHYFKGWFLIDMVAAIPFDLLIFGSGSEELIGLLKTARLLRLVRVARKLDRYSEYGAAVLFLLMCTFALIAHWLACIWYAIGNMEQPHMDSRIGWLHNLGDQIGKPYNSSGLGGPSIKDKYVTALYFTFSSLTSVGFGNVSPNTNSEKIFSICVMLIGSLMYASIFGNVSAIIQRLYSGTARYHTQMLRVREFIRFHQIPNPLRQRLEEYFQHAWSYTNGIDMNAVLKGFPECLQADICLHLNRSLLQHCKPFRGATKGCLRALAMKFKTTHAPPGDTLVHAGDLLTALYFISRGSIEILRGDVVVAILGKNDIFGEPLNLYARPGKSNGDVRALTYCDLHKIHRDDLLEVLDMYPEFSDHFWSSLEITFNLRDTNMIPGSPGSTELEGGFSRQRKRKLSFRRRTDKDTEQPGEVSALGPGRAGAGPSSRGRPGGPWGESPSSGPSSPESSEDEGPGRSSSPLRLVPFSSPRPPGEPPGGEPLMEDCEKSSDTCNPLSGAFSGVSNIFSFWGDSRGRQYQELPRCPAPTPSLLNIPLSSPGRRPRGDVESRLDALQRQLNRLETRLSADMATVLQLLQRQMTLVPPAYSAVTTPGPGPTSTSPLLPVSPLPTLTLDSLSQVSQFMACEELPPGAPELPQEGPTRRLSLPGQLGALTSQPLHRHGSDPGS
row,SMILES,"hERG current change (%, negative = inhibition) at 1uM"
1,COc1cc(/C=N\NC(=O)CNC(=O)C2COc3ccccc3O2)ccc1O (centres unmarked),-5.65%
2,O=C1C2C(C(=O)N1c1nccs1)C1C=CC2C12CC2 (centres unmarked),7.5%
3,O=C(NC(=S)Nc1ccc(O)cc1)c1ccccc1Cl,7%
4,Cc1ccc(NC(=O)NC(=O)CSc2nnc(-c3ccc(Cl)cc3Cl)n2N)c(C)c1,10.5%
5,O=C(Nc1ccc2c(c1)CCC2)c1cccc(OC(F)F)c1,-3.68%
6,COc1cc(N2CCOCC2)ccc1/C=C1\C(=O)NC(=O)N(Cc2cccs2)C1=O,9.85%
7,Cc1ccc(C)c(S(=O)(=O)Nc2ccc3scnc3c2)c1,16.5%
8,COc1ccc(S(=O)(=O)N(CC(=O)O)c2ccccc2)cc1,11.9%
9,COc1ccc(N(C)C(=O)c2sc(Cl)nc2C)cc1,9.2%
10,COc1cc2c(cc1OC)CN(CC(=O)Nc1ccc(C)c(S(=O)(=O)N3CCOCC3)c1)CC2,13.1%
11,COc1ccc(C2C(C#N)=C(/N=C/N3CCN(C)CC3)OC3=C2C(=O)CC(C)(C)C3)cc1OC (centres unmarked),13.3%
12,NC(=O)CC1C(=O)N(c2ccccc2)C(=S)N1NC(=O)c1ccccc1 (centres unmarked),17.9%
13,O=C(c1cccs1)N1CCN=C1SCc1ccccc1,8.31%
14,Cc1ccc(S(=O)(=O)N2CCCCC2)cc1NC(=S)NC(=O)c1ccco1,8.5%
15,C/C(=N\Nc1ccc(Cl)cc1)c1ccccn1.Cl,-0.472%
16,CCCCNC(=O)N(O)C1N(/N=C/c2ccccc2F)C(=S)SC1(C)C (centres unmarked),16.1%
17,CCN(CC)C(=S)Nc1ccc(OC(F)F)cc1,-9.5%
18,COc1ccc(CNc2nnnn2C)c(OC)c1,9.64%
19,O=C(CNC(=O)c1ccccc1)OCC(=O)c1ccccc1Cl,13.7%
20,COCCCNC(NC(=O)c1ccc(Cl)cc1)C(Cl)(Cl)Cl (centres unmarked),1.56%
21,CCN1CCC2(CC1)NC(CO)(CO)CO2,14.3%
22,C1CCN(CCCNC2C3CC4CC(C3)CC2C4)C1.Cl (centres unmarked),7.44%
23,COC(=O)c1sccc1NC(=O)CC1C(=O)NCCN1C(=O)c1ccccc1 (centres unmarked),6.1%

row,SMILES,"hERG current change (%, negative = inhibition) at 1uM"
1,Cc1ccc2c(Cl)cc(Cl)c(OCC(=O)N(C(C)C)C(C)C)c2n1,2.29%
2,O=C1c2ccc(Cl)cc2S(=O)(=O)c2cccc(C(=O)N3CCN(c4ccc(Cl)cn4)CC3)c21,1.52%
3,C/C(=C\C(=O)c1ccccc1)Nc1ccc(Cl)c(Br)c1,12.3%
4,COc1ccccc1CCNC(=O)CCCn1nc(C)c2c(C)n(-c3ccc(C)cc3)nc2c1=O,13.3%
5,Cc1c(CC(=O)O)c(=O)oc2c(C)c3occ(-c4ccc(F)cc4)c3cc12,8.9%
6,Cc1csc(NC(=O)/C=C/c2ccc3c(c2)OCO3)n1,8.44%
7,O=C(CCCN=C1NS(=O)(=O)c2ccccc21)OCC(=O)c1ccccc1,11.7%
8,Cc1ccc2nc(N3C(=O)C(O)=C(C(=O)c4ccco4)C3c3cccc(O)c3)sc2c1.O=C(O)C(=O)O (centres unmarked),11.2%
9,CCc1ccccc1NC(=O)C1CCCN(c2ncccn2)C1 (centres unmarked),11.2%
10,CCOC(=O)C1C(c2ccc(C)o2)NC(=O)NC1(O)C(F)(F)F (centres unmarked),10.6%
11,Cc1ccc(CCNC(=O)CS(=O)Cc2nc(-c3cccs3)oc2C)cc1 (centres unmarked),2.73%
12,CCc1ccc(NC(=O)C2CCN(C(=O)[C@@H]3Cc4ccccc4CN3)CC2)cc1,-26.6%
13,Cc1ccccc1NC(=S)N(CCCN1CCOCC1)Cc1ccccn1,2.78%
14,Cc1ccc(Oc2cnc3ccccc3n2)cc1,9.7%
15,Clc1ccc(SCCn2ccnc2)cc1,5.04%
16,O=C(NCc1cccc(Br)c1)C1CC2Cn3c(nc4ccccc43)C2N1c1ccccc1 (centres unmarked),15%
17,Cc1cc(=O)[nH]c(N2CCCNCC2)n1,9.57%
18,CCCCSc1nc2c(=O)[nH][nH]c(=O)c2n1Cc1ccccc1,7.62%
19,O=C(N1CCCCCC1)N1CCN(C(=O)N2CCCCC2)CC1,15.9%
20,O=C(NCC1COc2ccccc2O1)c1ccc(Cl)c(S(=O)(=O)N2CCOCC2)c1 (centres unmarked),-1.68%
21,Cc1nc2cc(NCc3cc([N+](=O)[O-])ccc3O)ccc2n1Cc1ccccc1,3.58%
22,O=C(NC1CCCc2c1cnn2-c1cc(F)cc(F)c1)c1ccc[n+]([O-])c1 (centres unmarked),8.61%
23,CC(C)(C)c1[nH]nc2c1C(c1ccoc1)C(C#N)=C(N)O2 (centres unmarked),2.24%

row,SMILES,"hERG current change (%, negative = inhibition) at 1uM"
1,O=C(CSc1nc(=O)n(CCCN2CCOCC2)c2c1CCCC2)Nc1ccc(F)cc1F,4.72%
2,N#Cc1c(Nc2ccccc2)sc(C(=O)C2CC2)c1N,9.86%
3,CCOC(=O)C1CCCN(c2nnnn2-c2ccccc2)C1 (centres unmarked),4.43%
4,COc1ccc(C)c(-n2c(N)cc(=O)n(Cc3ccccc3)c2=O)c1,12.3%
5,COc1ccc(CCn2c(N)c(S(=O)(=O)c3cccs3)c3nc4ccccc4nc32)cc1OC,9.62%
6,C/C=C/c1ccc(OCCCCOc2ccccc2C(C)=O)c(OC)c1,5.6%
7,Brc1ccccc1-c1cnco1,6.1%
8,COc1ccc(S(=O)(=O)Nc2ccc(-n3cccc3)cc2)cc1,9.03%
9,O=C(c1ccccc1F)c1cn(CC(=O)N2CCCCC2)c2ccccc12,11%
10,COc1ccccc1NS(=O)(=O)c1cccc(C(=O)NCC(c2ccc(F)cc2)N2CCOCC2)c1 (centres unmarked),-2.64%
11,c1ccc(Nc2cccc3c(Nc4ccccc4)cccc23)cc1,3.53%
12,CCOc1ccc(C(=O)Nc2cccc3ncccc23)cc1Cl,15.4%
13,c1ccc(NC2=NCCN2CCCC2CCCC2)cc1,-15.6%
14,COc1ccc(S(=O)(=O)N2CCCCCC2)cc1C(=O)N(C)Cc1cccs1,3.31%
15,CCC(C)NS(=O)(=O)c1ccc(S(=O)(=O)N(CC(=O)Nc2ccccc2)CC2CCCO2)cc1 (centres unmarked),5.68%
16,COCCNC(=O)CN(C(=O)CCC(=O)Nc1ccccn1)c1cc(C)ccc1C,4.31%
17,O=C1CSC(=O)N1CCOCCN1C(=O)CSC1=O,11%
18,O=c1[nH]nc(SCCS(=O)(=O)c2ccc(F)cc2)n1-c1ccccc1C(F)(F)F,11.1%
19,NC(=O)c1cc(S(=O)(=O)NCCc2ccccc2)cs1,14.8%
20,COC(=O)c1ccccc1NC(=O)Cn1nc2n(C)c3ccccc3n2c(=O)c1=O,8.08%
21,CCc1ccccc1NC(=O)CSc1ccsc1[N+](=O)[O-],17.5%
22,Cc1ccc(Cn2c(=O)c3ccccc3n3nc(C)cc23)cc1,1.62%
23,CCCc1nc2ccccc2c(=O)n1-c1cccc(OC)c1,5.11%

row,SMILES,"hERG current change (%, negative = inhibition) at 1uM"
1,CCc1nnc(NS(=O)(=O)c2ccc(NC(=O)COc3ccc4ccccc4c3)cc2)s1,9.24%
2,Cc1ccc(NC(=O)C2CCCC2)cc1Cl,5.32%
3,O=C(N/N=C/c1ccc(OCCCF)cc1)c1ccc(C(F)(F)F)cc1,11.7%
4,COc1ccc(-c2cc(-c3nnc(COC(=O)c4ccncc4)o3)c3ccccc3n2)cc1OC,9.71%
5,C=CCSc1nc2ccsc2c(=O)n1-c1ccccc1,10.2%
6,Brc1nc(-c2ccccc2)nc(-c2ccccc2)c1Br,5.09%
7,CC1O[C@@H]2O[C@](O[C@H](C)CC[C@@H](C)O)(c3ccccc3)O[C@@H]2C[C@H]1O (some centres unmarked),9.55%
8,CCCc1nc2ccccc2c(=O)n1/N=C/c1ccc(O)c(O)c1,-2.15%
9,CN(C)CCCn1c(=S)[nH]c2ccccc2c1=O,5.62%
10,O=S(=O)(c1ccc(Br)cc1)N1CCN(c2ccccc2)CC1,6.77%
11,COc1ccc(NCC(=O)N/N=C/C(C)c2ccccc2)cc1 (centres unmarked),4.77%
12,CCOC(=O)N1CCC(NC(=O)CNS(=O)(=O)c2ccc(Br)s2)CC1,-4.59%
13,CCS(=O)(=O)NCC(c1cccnc1)N1CCN(c2ccc(F)cc2)CC1 (centres unmarked),7.78%
14,Cc1cc(-c2cc(-c3ccc(Cl)cc3)on2)nc(NCC2CC2)n1,12%
15,COc1ccc(C(=O)CC(=O)C(=O)Nc2ccc(OC)c(Cl)c2)cc1,10.7%
16,CCOc1ccc2oc(C(=O)OC(C(=O)NC(N)=O)C(C)C)c(C)c2c1 (centres unmarked),4.76%
17,CCCCc1ccc(NC(=O)CN2NS(=O)(=O)c3ccccc3C2=O)cc1,14.4%
18,Cc1ccc(OCCCCNC2CCCC(C)C2C)c(C)c1.O=C(O)C(=O)O (centres unmarked),9.73%
19,CCOC(=O)C1(Cc2ccccc2)CCCN(Cc2ccccn2)C1 (centres unmarked),1.88%
20,CCN1CCN(c2cc(C)c3cc(NC(=O)CCC(=O)N4CCN(c5ccccc5OC)CC4)ccc3n2)CC1,22.4%

# Reference: paper PMC4336329 (PLoS ONE, 2015)
